Measurements reported in PubChem BioAssay AID887 (National Center for Advancing Translational Sciences (NCATS), 2007).
Screen size: about 74,000 compounds; about 1,100 (1.5%) were called active. The shares of active, inactive and inconclusive entries below differ from those in the screen. Calls come from the whole dose curve; as a rule, active = well fitted inhibition curve with a large enough effect; inconclusive = small, poorly fitted or top-dose-only effect; inactive = no such curve, though single readings can be large or run the other way. No potency is given beside an inconclusive call; the fits are too rough.

biological target: Polyunsaturated fatty acid lipoxygenase ALOX15 (Homo sapiens) (UniProt P16050); assay: qHTS Assay for Inhibitors of 15-hLO (15-human lipoxygenase); conditions: purified 15hLO-1, xylenol orange hydroperoxide absorbance; activity change, negative = inhibition: at 57.1 µM (top of the series) unless noted; note: nearly all actives have a fitted effect of over 55% in size
UniProt P16050, sequence (P16050 whole entry, looked up): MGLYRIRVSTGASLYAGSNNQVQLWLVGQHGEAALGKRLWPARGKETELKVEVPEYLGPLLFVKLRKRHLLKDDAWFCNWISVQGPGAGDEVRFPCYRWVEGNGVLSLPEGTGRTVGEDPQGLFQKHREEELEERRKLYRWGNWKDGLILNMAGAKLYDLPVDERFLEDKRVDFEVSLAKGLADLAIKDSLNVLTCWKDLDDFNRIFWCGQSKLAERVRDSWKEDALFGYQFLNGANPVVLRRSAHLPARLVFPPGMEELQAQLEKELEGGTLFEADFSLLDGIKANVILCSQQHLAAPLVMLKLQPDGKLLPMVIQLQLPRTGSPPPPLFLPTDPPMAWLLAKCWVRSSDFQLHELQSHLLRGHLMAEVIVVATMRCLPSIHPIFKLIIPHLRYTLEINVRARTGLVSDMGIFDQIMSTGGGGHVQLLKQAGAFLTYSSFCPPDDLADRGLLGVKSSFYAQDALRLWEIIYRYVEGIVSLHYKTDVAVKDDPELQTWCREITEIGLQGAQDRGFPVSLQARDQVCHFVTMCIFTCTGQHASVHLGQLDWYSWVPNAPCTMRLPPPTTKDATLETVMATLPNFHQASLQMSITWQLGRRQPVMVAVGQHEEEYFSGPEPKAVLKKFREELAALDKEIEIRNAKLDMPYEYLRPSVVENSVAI
Outline: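 Purified human 15hLO-1 (40 nM) in 25 mM Hepes pH 7.5, 0.01% Triton X-100, preincubated 15 min RT with compound, then 50 uM arachidonic acid for 6 min. Hydroperoxide read by ferrous/xylenol orange, 30 min; 573/405 nm absorbance ratio gave progress.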
% is set by controls: 0 for no effect and ±100 for the full control effect; potency is the fitted concentration of half-maximal effect; tags give direction and shape of the fitted curve.

| SMILES | Potency | activity change, negative = inhibition |
| --- | --- | --- |
| O=C(CCNS(=O)(=O)c1cccc2nonc12)NCCc1ccc(Cl)cc1 | inactive |  |
| CN1CCN(c2ncc3nc(-c4cccs4)c(=O)n(C[C@H]4CCCO4)c3n2)CC1 | inconclusive [inhibitor, single point] |  |
| Oc1ccccc1C(Sc1nc2ccccc2s1)Sc1nc2ccccc2s1 | inconclusive [inhibitor, single point] |  |
| O=C(CSc1c2c(nc3ccc(Cl)cc13)CCCC2)N1CCN(C(=O)c2ccco2)CC1 | inconclusive [inhibitor, single point] |  |
| Cc1ccc(-c2cc(C(=O)NCc3ccco3)c3ccccc3n2)o1 | inconclusive [inhibitor, partial curve] |  |
| C=C(CC(=O)O)C(=O)O (tested in a mixture with another compound) | inconclusive [inhibitor, partial curve] |  |
| c1csc(-c2nnc(-c3ccc(N4CCOCC4)cc3)o2)c1 | inconclusive [inhibitor, single point] |  |
| CCCC(=O)Nc1ccc(C(=O)NCC(=O)OCC)cc1 | inconclusive [inhibitor, single point] |  |
| Cc1cccc(CNc2ncncc2-c2ccccc2CN(C)C)c1 | inactive |  |
| CN(C(=O)c1cccnc1)c1nc(-c2ccccc2)cs1 | inconclusive [inhibitor, full curve, poor fit] |  |
| N#Cc1c(-c2ccco2)c2c([nH]c1=S)CCCC2 | active: 15.8 µM |  |
| C/C=C/Cn1c(SCc2ccc(C)cc2)nc2c1c(=O)[nH]c(=O)n2C | inconclusive [inhibitor, partial curve] |  |
| CCCCCCN(C(=O)CCCCCN1C(=O)NC(c2ccc(-c3ccccc3)cc2)C(C(=O)OCc2ccccc2)=C1C)C(C(=O)NCCCC)c1ccc(OCC(=O)O)c(C(=O)O)c1 (stereo not drawn) | inconclusive [inhibitor, single point] |  |
| Cc1cc2nc(-c3ccc(SCC(=O)N4CCN(C(=O)c5ccco5)CC4)nc3)[nH]c2cc1C | inactive |  |
| CCN(CC)S(=O)(=O)c1ccc(NC(=O)COC(=O)c2ccc(Br)o2)cc1 | inconclusive [inhibitor, single point] |  |
| CC(C)Oc1ccc(C(=O)NCc2ccco2)cc1 | inactive |  |
| COc1ccc(-c2nc(C#N)c(NCc3ccccc3Cl)o2)cc1 | inactive |  |
| COc1ccc(CCNC(=O)c2nnn(-c3ccc4c(c3)OCCO4)c2N)cc1OC | inactive |  |
| Cc1sc2c(c1C)c(=O)n(-c1ccccc1)c1nnc(C)n21 | active: 3.16 µM |  |
| CCOC(=O)c1cc(-c2ccc(N)cc2)sc1N | active: 25.1 µM |  |
| c1coc(-c2nc3ccccc3nc2-c2ccco2)c1 | active: 25.1 µM |  |
| COc1ccccc1-c1noc(CCC(=O)Nc2cc(C(F)(F)F)ccc2Cl)n1 | inconclusive [inhibitor, single point] |  |
| CCOCC(=O)Nc1c(C(=O)OCC)oc2ccccc12 | inactive |  |
| CCCn1c(-c2ccc(F)cc2)nc2c(NC3CC4CCC(C3)N4C)nc(C)nc21 (stereo not drawn) | inactive |  |
| Clc1ccc(Cl)c2sc(N3CCOCC3)nc12 | inconclusive [inhibitor, single point] |  |

| SMILES | Potency | activity change, negative = inhibition |
| --- | --- | --- |
| CCOC(=O)c1sc(=S)n(-c2cccc(OC)c2)c1N | inconclusive [inhibitor, partial curve] |  |
| Oc1ccc(-c2nc3ncccn3c2Nc2ccc3c(c2)OCO3)cc1 | active: 10 µM |  |
| c1ccc(-c2nc(NCCCN3CCOCC3)c3ccccc3n2)cc1 | inconclusive [inhibitor, single point] |  |
| O=C(O)c1ccc(Cc2ccccc2C(=O)O)cc1 |  | inactive: -8.75% [at 11.4 µM] |
| CN(C)c1ccc(-c2nccc(Nc3ccc(F)cc3)n2)cc1 | inconclusive [inhibitor, single point] |  |
| O=C1C(Cl)=C(Nc2ccc(S(=O)(=O)Nc3ccccn3)cc2)C(=O)c2ccccc21 | inconclusive [inhibitor, full curve] |  |
| CCNS(=O)(=O)c1ccc(NC(=O)Nc2cccc(OC)c2)cc1 | inconclusive [inhibitor, partial curve] |  |
| O=C(O)CN1C(=O)c2cccc3cccc(c23)C1=O | inconclusive [inhibitor, full curve, poor fit] |  |
| Cc1ccc(C(=O)CC(C(=O)O)c2cn(CCC#N)c3ccccc23)cc1 (stereo not drawn) | inconclusive [inhibitor, single point] |  |
| Oc1ccc(C=Nc2cccc3ncccc23)c(O)c1 | inconclusive [inhibitor, partial curve] |  |
| COc1cccc(CNc2ccc(F)c(Cl)c2)c1O | inconclusive [inhibitor, single point] |  |
| CCSC1=C(C#N)C(c2cccc(Br)c2)CC(=O)N1 (stereo not drawn) | inconclusive [inhibitor, full curve, poor fit] |  |
| C#CCCCO/N=C1/C[C@@H](O)[C@@H](O)[C@@H]2[C@@H]3C(=O)N(Cc4ccc5c(c4)OCO5)C(=O)[C@H]3CC[C@H]12 |  | inactive: -0.97% [at 11.4 µM] |
| COCCCNC(=O)c1c(N)n(-c2cccc(S(N)(=O)=O)c2)c2nc3ccccc3nc12 | inactive |  |
| Cc1c(NS(=O)(=O)c2ccccc2)cc(Cl)c(O)c1C | inconclusive [inhibitor, partial curve] |  |
| O=C(CSc1nnc(-c2cccs2)n1Cc1ccco1)Nc1ccc2c(c1)OCO2 | inactive |  |
| Cc1cc(O)c2c(-c3ccccc3)cc(=O)oc2c1 | inconclusive [inhibitor, single point] |  |
| O=C1CN(CC(=O)N2CCCCC2)c2ccccc2O1 | inconclusive [inhibitor, full curve, poor fit] |  |
| COc1ccc2c(c1)Cc1cc(N=[N+]([O-])c3ccc4c(c3)Cc3cc(OC)ccc3-4)ccc1-2 | active: 3.98 µM |  |
| COc1ccc(-c2ccc(-c3nnn(CC(=O)N4CCOCC4)n3)cc2)cc1 | inactive |  |
| COc1ccccc1CNc1ccnc(-c2ccc3c(c2)OCO3)n1 | active: 12.6 µM |  |
| CCCc1c(C)c2ccccc2[nH]c1=O | inactive |  |
| O=C(CCc1ccc(S(=O)(=O)N2CCOCC2)cc1)Oc1ccccc1 | inactive |  |
| CCOc1ccc2nc(NS(=O)(=O)c3ccc4c(c3)n(C)c(=O)n4C)sc2c1 | inconclusive [inhibitor, single point] |  |
| Cc1ccc(C)c2[nH]c(=O)c(CN(Cc3ccco3)C(=O)Nc3ccccc3)cc12 | inconclusive [inhibitor, partial curve] |  |

| SMILES | Potency | activity change, negative = inhibition |
| --- | --- | --- |
| Cc1ccccc1OCC(O)Cn1c(SC(C)C)nc2c1c(=O)[nH]c(=O)n2C (stereo not drawn) | inconclusive [inhibitor, single point] |  |
| Cn1c(=O)c2[nH]c(SCCN3CCOCC3)nc2n(C)c1=S | inconclusive [inhibitor, single point] |  |
| Cc1cc2c(c(=O)o1)C(C13C=CC(CC1)C3)C(C#N)=C(N)O2 (stereo not drawn) | inconclusive [inhibitor, single point] |  |
| COc1ccc(-c2noc(CCCOc3ccccc3)n2)cc1OC | inactive |  |
| COc1ccc(OC)c(-c2oc3ccccc3c(=O)c2O)c1 | inconclusive [inhibitor, partial curve] |  |
| CC(=O)C1=C(C)NC(SCC(=O)c2ccc(Cl)cc2)=C(C#N)C1c1ccco1 (stereo not drawn) | active: 12.6 µM |  |
| O=c1cc(-c2ccccc2)oc2c(O)c(O)ccc12 | active: 5.01 µM |  |
| COc1ccc(NC2CS(=O)(=O)CC2NCc2ccco2)cc1 (stereo not drawn) | active: 15.8 µM |  |
| Cc1ccc2c(CN3CCCc4ccccc43)cc(=O)oc2c1C | inconclusive [inhibitor, partial curve] |  |
| CN(C)C=Nc1ncc2c([nH]c3ccccc32)c1C#N | inconclusive [inhibitor, single point] |  |
| O=C(O)COc1ccc(Br)cc1/C=N/O |  | inactive: -6.16% [at 11.4 µM] |
| CC(=O)Nc1ccc(C2C(C)CCC3C(=O)N4C(CCC(C)[C@@H]4c4ccc(NC(C)=O)cc4)C(=O)N32)cc1 (stereo partly drawn) |  | inactive: -5.82% [at 11.4 µM] |
| N/C(CSc1nc(-c2ccccc2)c(-c2ccccc2)o1)=N\O | active: 12.6 µM |  |
| CCOC(=O)C1CCCN(C(=O)c2cnn3c(C(F)(F)F)cc(-c4ccccc4)nc23)C1 (stereo not drawn) | inactive |  |
| COc1ccc(N(CC(=O)N2CCc3ccccc3C2)S(=O)(=O)c2c(C)[nH]c(=O)[nH]c2=O)cc1 | inconclusive [inhibitor, full curve] |  |
| N#CCc1c(C#N)c(N)nc(N2CCN(S(=O)(=O)c3ccccc3)CC2)c1C#N | inactive |  |
| Cc1noc(C)c1-c1ccc2ncnc(NC3CC3)c2c1 | inactive |  |
| CCSC1=C(C#N)C(c2ccccc2Cl)CC(=O)N1 (stereo not drawn) | inconclusive [inhibitor, single point] |  |
| CCOc1ccc2c(c1)N(C(=O)CN1C(=O)CCC1=O)C(C)(C)C=C2C | inactive |  |
| O=C(CCc1ccccc1)Nc1cc(Cl)ccc1O | inconclusive [inhibitor, partial curve] |  |
| Cn1cccc1Cc1nnc(SCC(=O)Nc2nccs2)n1CCc1ccccc1 | inconclusive [inhibitor, partial curve] |  |
| COC(=O)c1ccc2c(c1)S(=O)(=O)NC(=NCc1ccco1)S2 | inconclusive [inhibitor, partial curve, poor fit] |  |
| COc1ccc(-c2cc(-c3cc(F)ccc3O)[nH]n2)cc1OC | inconclusive [inhibitor, full curve, poor fit] |  |
